Read counts are not given, so values of variants with three or more changes are uncertain.

To fix the notation:
B1: OR4K15 (parent)
chain: GUUAACGGUCAUAGGCCAUGGAAACUAGGAGCACCAUUUCGCUGCCAGUGAAGAAAUGAACAAAGAAAAUCUGGGCCAGGCAGGCAUCAAAAGAAAUAGUCUUGCGCUCAACCAGAAAGUCUGUAAUCAUUUUAAGGGUA

In the data set the parent is B1. The data set is described as follows: self-cleavage, relative activity (ratio to wild type); higher = more cleavage; in vitro, sequencing; the parent is a self-cleaving ribozyme.
In the case of GUUAACGGUCAUAGGCCAUGGAAACUAGGAGCACCAUUCCGCUGCCAGUGAAGAAAUGAACAAAGAAAAUCUGGGUCAGGCAGGCAUCAAAAGAAAUAGACUUGCGCUCAACCAGAGAGUCUGUAAUCAUUUUAAGGGUA [U39C C76U U100A A117G], the self-cleavage came out at 0.05.
Next, GUUAACGGUCAUAGGCCAUGGAAACUAGGAGCACCAUUCCGCUGCCAGUGAAGAAAUGAACAAGGAAGAUCUGGGCCAGGCAGGCAUCAAAAGAAAUAGUCUUGCGCUCAACCAGAAAGUCUGUAAUCAUUUUAAGGGUA [U39C A64G A68G]: 0.87; GUUAACGGUCAUAGGCCAUGGAAACUAGGAGCACCAUUCCGCUGCCAGUGAAGAAAUGAACAAAGAAAAUCUGGGCCAGGCAGGCAUCAAAAGAAAUAGUCUUGCGCUCAACCAGGAAGUCUGUAAUCAUCUUAAGGGUA [U39C A116G U131C]: 1.13.
Consider GUUAACGGUCAUAGGCCAUGGAAACUAGGAGCACCAUUCCGCUGCCAGUGAAGAAAUGAACAAAGAAAGUCUGGGCCAGGCAGGCAUCAAAAGAGAUAGUCUUGCGCUCAACCAGAAAGUCUGUAAUCAUUUUAAGGGUA [U39C A69G A95G], for which the self-cleavage came to 1.75.
The result for GUUAACGGUCAUAGGCCAUGGAAACUAGGAGCACCAUUCCGCUGCCAGUGAAGAAAUGAACAAGGAAAAUCUGGGCCAGGCAGGCAUCAAAAGAAAUAGUCUUGCGCUCAACCAGAAAGUCCGUAAUCAUUUUAAGGGUA [U39C A64G U122C] reads 1.68.
The result for GUUAACGGUCAUAGGCCAUGGAAACUAGGAGCACCAUUCCGCUGCCAAUGAAGAAAUGAACAAAGAAAAUCUGGGCCAGGCCGGCAUCAAGAGAAAUAGCCUUGCGCUCAACCAGAAAGUCUGUAAUCAUUUUAAGGGUA [U39C G48A A82C A91G U100C] reads 0.23; that for GUUAACGGUCAUAGGCCAUGGAAACUAGGAGCACCAUUCCGCUGCCAGUGAAGAAAUGAACAAAGAAAAUCUGGGCCAGGCAGGCAUCAAAAGAAAUAGUCUUGCGCUCAGCCAGAAAGUCCGUAAUCAUUUUAAGGGUA [U39C A111G U122C], 0.01.
Next, GUUAACGGUCAUAGGCCAUGGAAACUAGGAGCACCAUUCCGCUGCCAGUGAAGAAAUGAACAAGGAAAAUCUGGGCCAGGCAGGCAUCAAAAGUAGUAGUCUUGCGCCCAACCAGAAAGUCUGUAAUCAUUUUAAGGGUA [U39C A64G A94U A96G U108C]: 0.02; GUUAACGGUCAUAGGCCAUGGAAACUAGGAGCACCAUUCUGCUGCCAGUGAAGAAAUGAACAAAGAAACCCUGGGCCAGGCAGGCAUCAAAAGAAAUAGUCUUGCGCUCAACCAGAAAGUCCGUAAUCAUUUUAAGGGUA [U39C C40U A69C U70C U122C]: 0.58; GUUAACGGUCAUAGGCCAUGGAAACUAGGAGCACCAUUCCGCUGCCAGUGAAGAAAUGAACAAAGAAAAUCUGGGCCAGGCAGGCAUCAAAAGGAAUGGUCUCGCGCUCAACCAGAAAGUCUGUAAUCAUUUUAAGGGUA [U39C A94G A98G U103C]: 0.07.
In the case of GUUAACGGUCAUAGGCCAUGGAAACUAGGAGCACCAUUCCGCUGCCAGUGAAGAAAUGAACAAAGAAAAUCUGGGCCAGGCGGGCAUCUAAAGAAAUAGUCUUGCGCUCAGCCAGAAGGUCUGUAAUCAUUUUAAGGGUA [U39C A82G A89U A111G A118G], the self-cleavage is 0.
Next, GUUAACGGUCAUAGGCCAUGGAAACUAGGAGCACCAUUCCGCUGCCAGUGAAGAAAUGAACAAAGAAAAUCUGGGCCAGGCAGGCAUCGAAAGAAAUAGUCUUGCGCUCAACCAGAGAGUCUGUAGUCAUUUUAAGGGUA [U39C A89G A117G A126G]: 1.42.
Next, GUUAACGGUCAUAGGCCAUGGAAACUAGGAGCACCAUUCCGCUGCCAGUGAAGAAAUGAACAAAGAAAAUCUGGGCCAGGCAGGCAUCAAAAGAAAUAGUCUUGCACUCAACCAGAAAGUCUGUAAUCGUUUUAAGGGUA [U39C G106A A129G]: 0.01.
The result for GUUAACGGUCAUAGGCCAUGGAAACUAGGAGCACCAUUCCGCUGCCAGUGAAGAAAUGAACAAAGAAAAUCUGGGCCAGGCAGGCAUCAAAAGAAAUAGUCUUGCGCUCAGCCAGAAAGUCUGUAACCAUUUUAAGGGUA [U39C A111G U127C] reads 0.01; that for GUUAACGGUCAUAGGCCAUGGAAACUAGGAGCACCAUUCCGCUGCCAGUGAAGAAAUGAACAAAGAAAAUCUGGGCCAGGCAGGCAUCAAAAGGAAUAGUCUUACGCUCAACCAGAAAGUCUGUAAUCAUUUUACGGGUA [U39C A94G G104A A135C], 0.04; that for GUUAACGGUCAUAGGCCAUGGAAACUAGGAGCACCAUUCCGCAGCCAGUGAAGAAAUGAACAAAGGAAAUCUGGGCCGGGCAGGCAUCAAUAGAAAUAGUCUUGCGCUCAACCAGAAAGUCUGUAAUCAUUUUAAGGGUA [U39C U43A A66G A78G A91U], 0.25.
For GUUAACGGUCAUAGGCCAUGGAAACUAGGAGCACCAUUCCGCUGCCAGUGAAGAAAUGAACAAAGAAAAUCUGGGCCUGGCAGGCACCAAAAGAAAUAGUCUUGCGCUCAACCAGAAAGUCUGUAAUCAUUUUAAGGGUA [U39C A78U U87C], the self-cleavage is 0.15.
Take GUUAACGGUCAUAGGCCAUGGAAACUAGGAGCACCAUUCCGCUGCCAGUGAAGAAAUGAACAAAGAAAAUCUGGGCCAGGCAGGCAUCAAAAAAAAUAGUCUUGCGCUCAACCAGAAGGUCUGUAAUGAUUUUAAGGGUA [U39C G93A A118G C128G]: the self-cleavage came out at 0.75.
The result for GUUAACGGUCAUAGGCCAUGGAAACUAGGAGCACCAUUCCGCUGCCAGUGAAGAAAUAAACAAAGAAAAUCUGGGCCAGGCAGGCAUCAAAAGAAAUAGCCUUGCGCUCAACCAGAAAGUCUGUAAUCAUUUUAAGGGUA [U39C G58A U100C] reads 1.88; that for GUUAACGGUCAUAGGCCAUGGAAACUAGGAGCACCAUUCCGCUGCCAGUGAAGAAAUGAACAAAGAAAAUCUGGGCCAGGCAGGCAUCAAGAGAAAUAGACUUGCGCUCAACCAGAAAGUCUGUAAUCAUUUUAAGGGUA [U39C A91G U100A], 0.25.

Values taken from the RNAGym collection of RNA variant scans (doi:10.7554/elife.90254).
